Laboratory results: the supplement of paper PMC3334620
The full ranking holds about 33,000 sequences; the median of “E-score (-0.5 to 0.5)” is about -0.056, and the highest 2% start at about 0.38. This is one part of the list.

These sequences were tested against Stb4 (UniProt P50104) (assay: PBM E-score (8-mer binding enrichment) (E-score (-0.5 to 0.5)); higher = stronger / more preferred TF binding; most listed sequences are background and not binding sites). Details: protein concentration: 200 nM; construct: GST-DNA-binding domain.
Protocol: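 Universal 'all 10-mer' protein binding microarrays (Agilent AMADID 015681) probed with GST-tagged S. cerevisiae TFs (full-length or DBD) made by in vitro transcription/translation (PURExpress), about 100-200 nM. Bound TF was detected with fluorescent anti-GST. Each ungapped 8-mer (which stands for itself and its reverse complement) is scored by the PBM enrichment score (E-score), a modified Wilcoxon-Mann-Whitney statistic from -0.5 to +0.5, computed with the Universal PBM Analysis Suite. Scale: above 0.35 generally sequence-specific binding.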

Point of comparison: AATCGTCT, “PBM E-score” value -0.222. Against it:
- TTAAGTAA — higher, 0.0365
- CTAAGGAC — higher, -0.171
- AGTGTATG — higher, 0.0323
- AGGCGTCA — lower, -0.346
- ACGCTTAG — higher, -0.202
- CAGGTTCG — higher, 0.2
- AGACTACA — higher, -0.135
- ATTCCGAG — higher, 0.472
- AAGCATTC — higher, 0.0236
- CGGGGACC — higher, 0.189
- ACTGTACC — higher, 0.147
- GAGAGACA — higher, -0.119
- CGTAATCC — higher, 0.0908
- AGCCGCAG — higher, 0.0821
- AGATAAGG — higher, -0.0299
- TAGTGACA — higher, -0.2
- GGTAGCTA — higher, -0.0552
- AGGTATAT — the same, -0.222
- ACAAGCCT — lower, -0.308
- GTCTGCAA — higher, 0.0421
- AGGGGATC — higher, -0.0701
- AGCGACCC — higher, 0.0831
- ATTGTCAG — higher, -0.151
- ACATTGAA — higher, -0.0609
- ATCTAGCC — higher, 0.0343
- CAGACTCG — higher, -0.066
- ACACGCTC — higher, 0.0442
- GGGGCGCA — lower, -0.23
- CTTGCCGA — higher, 0.396
- CCGCACCG — higher, 0.155
- ATTAGCTC — higher, -0.113
- ATAACCTA — higher, -0.0868
- ACCTCAGC — higher, -0.0537
- AGGGCATG — lower, -0.259
- ACCGTGAA — higher, 0.00123
- AGCCTACA — higher, -0.16
- CACTCGCC — higher, -0.00692
- GGGCCTGA — higher, -0.175
- GACGAATA — higher, 0.0471
- CGTACAGA — higher, -0.0914
- AAGGAATG — higher, 0.0209
- ATCTTCAA — lower, -0.24
- AATATGAG — higher, -0.119
- ACAGGTGC — higher, -0.0918
- ACGTAGTA — higher, -0.0824
- ACGGGCGA — higher, 0.106
- AGTGCCAG — higher, -0.113
- ACTGATGG — higher, -0.219
- CCGGTACA — higher, 0.272
- CAACAGCC — higher, 0.0759
- CACGAAGA — lower, -0.255
- ATGTCATC — higher, -0.14
- CAGTGTCA — higher, -0.135
- CCACGCTA — higher, -0.207
- CTCTACGA — higher, -0.192
- AGCCTCCG — higher, 0.203
- TACATAGA — higher, -0.174
- GTCTCACA — higher, 0.047
- AGAGGGGA — higher, -0.0413
- AACCGGCG — higher, 0.253
- GATTGGAA — higher, -0.0263
- GATACTAA — higher, 0.182
- AAGTCATA — higher, -0.174
- ACGCAAGA — higher, -0.204
- ATGGAAAG — higher, -0.0405
- GCAACCGC — higher, 0.0272
- ACAGGTTG — higher, -0.21
- CCGTTTCA — higher, 0.126
- AGTCCTGG — lower, -0.319
- CGCATCTC — higher, 0.0906
- AGCACTCG — higher, 0.124
- AGGAAAGA — higher, -0.174
- ACCCGTCG — higher, 0.17
- AACTTTGA — higher, -0.166
- TCCTCGCA — higher, -0.138
- CAAAGATG — higher, -0.0814
- CCATCCTC — higher, 0.147
- CGCGGAAA — higher, 0.316
- CAGCGACA — higher, -0.189
- GAAACACA — higher, 0.11
- GACCCATC — higher, 0.0784
- CATTTCGG — higher, 0.336
- CTGCTGCA — higher, -0.148
- CGCAGAAC — higher, -0.0819
- AGTTTGAC — higher, -0.0486
- ATCAAGAC — higher, -0.0811
- CCACTTCC — higher, 0.127
- ACGGATAA — higher, 0.416
- ACTCAGTG — higher, -0.208
- CCTCGTCA — higher, -0.0723
- CTAGTTGA — higher, -0.136
- CCCTGTAA — higher, -0.0872
- CTCACTAC — higher, -0.0955
- AAAAAGCT — higher, -0.0296
- AATTAGAG — higher, -0.102
- CGAGGGCG — higher, 0.109
- ACACAGAC — higher, -0.114
- AGGTTAAA — higher, -0.0548
- ACCATATC — higher, 0.0425
- ATATATGG — higher, -0.0678
- AGTCTAAG — higher, 0.0423
- CAGCTTGA — lower, -0.225
- ATTCTCAA — lower, -0.252
- GCAGTTCC — higher, 0.0961
- AGTACATA — higher, -0.0517
- CGCTCCCC — higher, -0.189
- TCCTCAAA — higher, -0.175
- TATGCAAA — higher, -0.133
- GGCCGACC — higher, 0.186
- AATGCATC — higher, -0.132
- AGAATATA — higher, -0.0714
- AACGGGCA — higher, -0.064
- AAATGCTA — higher, 0.0636
- ACGATTCA — higher, -0.053
- AGGGTAAT — higher, -0.0845
- ACATGCAC — higher, -0.184
- GACAGCCC — higher, -0.018
- CCGTAGGC — higher, 0.132
- GTCACCGA — higher, 0.111
- GGATAGTA — higher, 0.231
- CTGATTAC — higher, 0.0295
- TATTAGCA — higher, -0.148
- CGTTGGTA — higher, 0.127
- CCCAGTTA — higher, -0.0445
- CACATGTA — higher, -0.209
- ACCGCCCG — higher, 0.254
- CTGTATTA — higher, -0.108
- AGTCTCAT — higher, -0.0888
- AAGTCGGG — higher, 0.306
- GACTTTGA — higher, -0.149
- CCCAGTGA — lower, -0.33
- ATAATATC — higher, -0.0702
- CTATTGGA — higher, -0.072
- CTAGGGAA — higher, -0.0336
- CTCGACAC — higher, -0.144
- AGTGCAAC — higher, 0.0517
- GTGTGGTA — higher, -0.103
- GTGCTCGA — higher, 0.00939
- AAACGCAA — higher, -0.027
- GAGCATCC — higher, 0.258
- CGCAATAC — higher, 0.0426
- CCCCATCG — higher, 0.143
- ATACGGCC — higher, 0.0364
- CGGACATA — higher, 0.217
- GGTCGATA — higher, 0.0179
- CGACTCCA — higher, 0.0185
- GAGATGAC — higher, -0.0667
- GCCAAATA — higher, -0.14
- GTGGTGCA — higher, -0.0162
- GCCGATCC — higher, 0.363
- AACCAGAC — lower, -0.233
- CCATCTGC — higher, 0.0925
- GGATACTA — higher, 0.266
- ACACAGGC — higher, -0.16
- GAACGTTA — higher, -0.00926
- AAGAGTGG — higher, -0.179
- GGAACCAA — higher, 0.196
- GATCCCCC — higher, -0.0118
- CCGTCCAG — higher, 0.0535
- CCGCGTAG — higher, 0.0991
- TAACGCAA — higher, -0.157
- GATGATGC — higher, 0.0163
- GTGCCATA — higher, -0.194
- GCTAAGCC — higher, -0.0224
- CGCAACAC — higher, -0.00156
- GCGCAACC — higher, -0.146
- CATTACGG — higher, 0.00852
- GGTCTAGA — higher, -0.0983
- GCGCATAC — higher, 0.0597
- CACGGTAA — higher, 0.154
- CGCTAGCC — higher, -0.0364
